According to paper PMC5182127, “Cellular and viral peptides bind multiple sites on the N‐terminal domain of clathrin” (Traffic (Copenhagen, Denmark), 2016):
Results are given in words; binding and its absence hold for the method and conditions named. Some results given as binding are weak or reduced against the parent protein; the word gives no strength. For some assays here: Tags and fused reporters may be left off the sequences shown.

Amino acid sequences for entries named in this document (tags omitted). A change or cut given only in a name is not applied to a line headed by its entry.
UniProt P49418: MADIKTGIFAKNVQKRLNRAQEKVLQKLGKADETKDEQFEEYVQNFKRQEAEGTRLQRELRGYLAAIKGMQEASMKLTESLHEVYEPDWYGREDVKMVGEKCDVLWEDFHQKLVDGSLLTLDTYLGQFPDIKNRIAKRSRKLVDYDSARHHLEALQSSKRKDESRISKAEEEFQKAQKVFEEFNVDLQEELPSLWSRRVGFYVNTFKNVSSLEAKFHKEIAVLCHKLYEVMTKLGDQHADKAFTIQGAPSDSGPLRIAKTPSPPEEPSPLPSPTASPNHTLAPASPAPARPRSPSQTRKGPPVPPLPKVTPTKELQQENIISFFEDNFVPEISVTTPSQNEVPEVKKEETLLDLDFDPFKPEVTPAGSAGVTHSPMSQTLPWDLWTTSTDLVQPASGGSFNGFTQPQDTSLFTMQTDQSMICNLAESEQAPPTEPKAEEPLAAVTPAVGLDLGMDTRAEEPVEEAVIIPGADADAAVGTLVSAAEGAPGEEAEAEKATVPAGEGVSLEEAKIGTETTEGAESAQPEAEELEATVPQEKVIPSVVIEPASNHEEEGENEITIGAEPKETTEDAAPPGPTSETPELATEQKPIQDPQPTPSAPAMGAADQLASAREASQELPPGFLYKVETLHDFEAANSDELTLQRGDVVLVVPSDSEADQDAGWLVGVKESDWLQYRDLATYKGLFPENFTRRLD
UniProt P63010: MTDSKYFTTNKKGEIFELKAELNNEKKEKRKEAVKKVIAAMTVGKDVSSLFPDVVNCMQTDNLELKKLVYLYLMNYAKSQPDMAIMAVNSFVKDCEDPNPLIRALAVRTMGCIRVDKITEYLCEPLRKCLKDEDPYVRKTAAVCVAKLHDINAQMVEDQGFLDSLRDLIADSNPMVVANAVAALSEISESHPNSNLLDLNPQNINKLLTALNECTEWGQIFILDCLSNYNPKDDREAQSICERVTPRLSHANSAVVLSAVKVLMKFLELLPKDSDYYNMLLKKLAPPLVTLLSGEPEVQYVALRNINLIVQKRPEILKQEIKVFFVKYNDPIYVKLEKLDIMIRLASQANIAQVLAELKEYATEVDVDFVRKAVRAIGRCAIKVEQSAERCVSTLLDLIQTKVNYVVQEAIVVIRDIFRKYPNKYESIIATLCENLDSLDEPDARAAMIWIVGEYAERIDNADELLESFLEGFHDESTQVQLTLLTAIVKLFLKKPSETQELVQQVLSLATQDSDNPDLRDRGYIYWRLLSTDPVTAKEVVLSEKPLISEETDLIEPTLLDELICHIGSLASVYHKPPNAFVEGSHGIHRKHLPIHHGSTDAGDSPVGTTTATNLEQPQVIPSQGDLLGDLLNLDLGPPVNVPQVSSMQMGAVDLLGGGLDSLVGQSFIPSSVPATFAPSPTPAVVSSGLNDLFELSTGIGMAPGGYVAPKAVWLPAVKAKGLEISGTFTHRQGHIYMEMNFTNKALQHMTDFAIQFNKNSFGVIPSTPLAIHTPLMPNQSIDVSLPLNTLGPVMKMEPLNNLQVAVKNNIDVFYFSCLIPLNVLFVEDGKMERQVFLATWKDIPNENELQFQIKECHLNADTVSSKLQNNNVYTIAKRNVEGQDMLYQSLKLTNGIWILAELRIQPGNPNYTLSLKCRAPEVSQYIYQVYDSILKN
UniProt O08838: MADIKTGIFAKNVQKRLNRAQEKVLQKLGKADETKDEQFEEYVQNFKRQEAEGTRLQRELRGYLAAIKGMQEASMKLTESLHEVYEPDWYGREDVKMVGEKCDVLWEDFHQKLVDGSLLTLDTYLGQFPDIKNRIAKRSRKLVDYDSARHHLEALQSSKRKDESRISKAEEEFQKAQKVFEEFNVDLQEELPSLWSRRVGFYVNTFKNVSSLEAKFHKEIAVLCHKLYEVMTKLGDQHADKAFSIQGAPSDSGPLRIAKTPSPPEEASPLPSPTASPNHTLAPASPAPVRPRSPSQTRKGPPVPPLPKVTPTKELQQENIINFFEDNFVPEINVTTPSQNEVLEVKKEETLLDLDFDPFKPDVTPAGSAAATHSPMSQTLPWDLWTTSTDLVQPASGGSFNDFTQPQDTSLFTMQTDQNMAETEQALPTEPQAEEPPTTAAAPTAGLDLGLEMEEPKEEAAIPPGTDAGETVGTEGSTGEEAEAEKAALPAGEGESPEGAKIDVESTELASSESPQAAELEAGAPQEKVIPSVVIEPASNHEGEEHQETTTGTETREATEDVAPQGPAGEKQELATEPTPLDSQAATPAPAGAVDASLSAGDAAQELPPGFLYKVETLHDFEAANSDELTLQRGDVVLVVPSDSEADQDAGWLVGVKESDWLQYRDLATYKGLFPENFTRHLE
UniProt Q9Y6K9: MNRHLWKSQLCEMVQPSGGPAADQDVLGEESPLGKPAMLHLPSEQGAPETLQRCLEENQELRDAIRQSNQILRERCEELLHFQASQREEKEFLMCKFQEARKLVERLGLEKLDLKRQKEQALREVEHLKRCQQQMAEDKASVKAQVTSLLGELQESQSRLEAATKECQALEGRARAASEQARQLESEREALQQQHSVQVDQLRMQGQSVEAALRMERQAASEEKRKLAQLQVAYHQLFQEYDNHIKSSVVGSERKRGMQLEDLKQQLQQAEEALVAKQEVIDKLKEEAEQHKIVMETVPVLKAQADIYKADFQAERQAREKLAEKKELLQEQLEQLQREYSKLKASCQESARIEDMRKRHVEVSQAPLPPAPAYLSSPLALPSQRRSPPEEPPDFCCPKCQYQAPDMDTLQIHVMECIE

T1: GST‐Wbox (human) (UniProt P49418)
T1 sequence: TLPWDLWTTS

T2: GST‐AP2arrS (human, UniProt P63010 623-632)
T2 construct: also called extended arrestin motif (LLGDLL); source: E. coli BL21(DE3) pLysS, purified (glutathione resin, SEC); not shown: GST, N-terminal, kept
T2 chain (looked up): SQGDLLGDLL

T3: GST‐AmphCBM (human, UniProt P49418 349-358)
T3 construct: also called human amphiphysin I CBM; source: E. coli BL21(DE3) pLysS, purified (glutathione resin, SEC); not shown: GST, N-terminal, kept
T3 chain (looked up): ETLLDLDFDP

T4: GST‐AP2CBM (human, UniProt P63010 629-640)
T4 construct: also called CBM from flexible hinge of β2 adaptin subunit of human AP2; source: E. coli BL21(DE3) pLysS, purified (glutathione resin, SEC); not shown: GST, N-terminal, kept
T4 chain (looked up): GDLLNLDLGPPV

T5: GST‐Amph4T1 (rat, UniProt O08838 349-356)
T5 construct: also called extended amphiphysin CBM construct; source: E. coli BL21(DE3) pLysS, purified (glutathione resin, SEC)
T5 chain: ETLLDLDFLERPHRD


Assays:
[1] = biological target: T6, His‐NTD‐NEMO (wild type) (bovine | not stated) (UniProt P49951+Q9Y6K9); experiment: SEC-MALS; His-NTD-NEMO injected at higher concentrations of a series of 6; Superdex 200 10/300, 22°C, 20 mM Tris pH 7.5, 200 mM NaCl, 1 mM DTT; both purified
[2] = biological target: T1, GST‐Wbox (human); experiment: pull-down; 500 µg GST or GST-peptide bait on glutathione sepharose 4B; 0.1 mg/mL wild-type or mutant His-NTD-NEMO as prey, 2 h, 4°C; 25 mM HEPES-KOH, 125 mM potassium acetate, 5 mM magnesium acetate, 2 mM EDTA, 2 mM EGTA, 1 mM DTT, pH 7.2; washes with PBS; immunoblot with anti-clathrin NTD antibody; both purified
[3] = biological target: T2, GST‐AP2arrS; experiment: as above
[4] = biological target: GST‐AP2arrL (human) (UniProt P63010); experiment: as above
[5] = biological target: T3, GST‐AmphCBM; experiment: as above
[6] = biological target: GST‐HDAg‐L2 (hepatitis D virus clade II) (UniProt A4ZNG7); experiment: as above
[7] = biological target: T4, GST‐AP2CBM; experiment: as above
[8] = biological target: T5, GST‐Amph4T1; experiment: as above
[9] = biological target: T6, His‐NTD‐NEMO (wild type) (bovine | not stated); experiment: condition: only at low concentrations of injected His‐NTD‐NEMO; SEC-MALS; His-NTD-NEMO injected at low concentrations of a series of 6; Superdex 200 10/300, 22°C, 20 mM Tris pH 7.5, 200 mM NaCl, 1 mM DTT; both purified

Row | Molecule | binding [1] | binding [2] | binding [3] | binding [4] | binding [5] | binding [6] | binding [7] | binding [8] | binding [9]
1 | His‐NTD‐NEMO (wild type) (from UniProt P49951 1-363; Q9Y6K9 246-365) | binds | binds | binds | binds | binds | no binding (tested: 0.1 mg/mL His‐NTD‐NEMO) | binds | binds | no binding
2 | His‐NTD‐NEMO Q89A + F91K + F9W (other, UniProt P49951 1-363, looked up, also called mutant with disrupted clathrin and Royle boxes; printed in the text as Q98A + F91K + F9W; not shown: His6, N-terminal, kept) MAQILPIRWQEHLQLQNLGINPANIGFSTLTMESDKFICIREKVGEQAQVVIIDMNDPSNPIRRPISADSAIMNPASKVIALKAGKTLAIKNIEMKSKMKAHTMTDDVTFWKWISLNTVALVTDNAVYHWSMEGESQPVKMFDRHSSLAGCQIINYRTDAKQKWLLLTGISAQQNRVVGAMQLYSVDRKVSQPIEGHAASFAQFKMEGNAEESTLFCFAVRGQAGGKLHIIEVGTPPTGNQPFPKKAVDVFFPPEAQNDFPVAMQISEKHDVVFLITKYGYIHLYDLETGTCIYMNRISGETIFVTAPHEATAGIIGVNRKGQVLSVCVEEENIIPYITNVLQNPDLALRMAVRNNLAGAEELKSSVVGSERKRGMQLEDLKQQLQQAEEALVAKQEVIDKLKEEAEQHKIVMETVPVLKAQADIYKADFQAERQAREKLAEKKELLQEQLEQLQREYSKLKASCQESARIEDMRKRHVEVSQ |  |  |  | binds weakly |  |  |  |  | 
3 | His‐NTD‐NEMO Q89A + F91K + Q192Y (other, UniProt P49951 1-363, looked up, also called His‐NTD‐NEMO mutated at both the clathrin and arrestin boxes; not shown: His6, N-terminal, kept) MAQILPIRFQEHLQLQNLGINPANIGFSTLTMESDKFICIREKVGEQAQVVIIDMNDPSNPIRRPISADSAIMNPASKVIALKAGKTLAIKNIEMKSKMKAHTMTDDVTFWKWISLNTVALVTDNAVYHWSMEGESQPVKMFDRHSSLAGCQIINYRTDAKQKWLLLTGISAQQNRVVGAMQLYSVDRKVSYPIEGHAASFAQFKMEGNAEESTLFCFAVRGQAGGKLHIIEVGTPPTGNQPFPKKAVDVFFPPEAQNDFPVAMQISEKHDVVFLITKYGYIHLYDLETGTCIYMNRISGETIFVTAPHEATAGIIGVNRKGQVLSVCVEEENIIPYITNVLQNPDLALRMAVRNNLAGAEELKSSVVGSERKRGMQLEDLKQQLQQAEEALVAKQEVIDKLKEEAEQHKIVMETVPVLKAQADIYKADFQAERQAREKLAEKKELLQEQLEQLQREYSKLKASCQESARIEDMRKRHVEVSQ |  |  |  |  |  |  | no binding (tested: 0.1 mg/mL His‐NTD‐NEMO) |  | 
